From PubChem BioAssay AID1159614 (National Center for Advancing Translational Sciences (NCATS), 2016) come the findings set out here.

Hit rate of the full screen: of about 45,000 compounds, about 65 (0.1%) were called active. The call rests on the fitted dose curve; in most records, active means well fitted activation curve with a large enough effect; inconclusive means small, poorly fitted or top-dose-only effect; inactive means no such curve, though single readings can be large or run the other way. The list shows a part of the results.

In this assay the target is Galactocerebrosidase (Homo sapiens) (UniProt P54803). Put plainly: A Novel Cell-Based Assay to Identify Small Molecules for B -Galactocerebrosidase. Further: 0% is about no effect; nearly all actives have a fitted effect of over 65% in size. To be noted: 145M-Twi-hGALC-G270D cells (Twitcher mouse brain line with human GALC G270D), HMU-beta-Gal fluorescence, 48 h; series mostly up to 57.5 µM; activation: at the top concentration. In a few lines: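 Fluorogenic HMU-b-Gal hydrolysis (0.1 mM final, pH 5.2 citrate-phosphate with 1 mg/mL sodium taurocholate; carbonate stop buffer) measures mutant GALC activity after compound treatment of live 145M-Twi Twitcher brain cells stably carrying human GALC-G270D, with wild-type GALC line alongside; activation sought.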
UniProt P54803, sequence (P54803 whole entry, looked up): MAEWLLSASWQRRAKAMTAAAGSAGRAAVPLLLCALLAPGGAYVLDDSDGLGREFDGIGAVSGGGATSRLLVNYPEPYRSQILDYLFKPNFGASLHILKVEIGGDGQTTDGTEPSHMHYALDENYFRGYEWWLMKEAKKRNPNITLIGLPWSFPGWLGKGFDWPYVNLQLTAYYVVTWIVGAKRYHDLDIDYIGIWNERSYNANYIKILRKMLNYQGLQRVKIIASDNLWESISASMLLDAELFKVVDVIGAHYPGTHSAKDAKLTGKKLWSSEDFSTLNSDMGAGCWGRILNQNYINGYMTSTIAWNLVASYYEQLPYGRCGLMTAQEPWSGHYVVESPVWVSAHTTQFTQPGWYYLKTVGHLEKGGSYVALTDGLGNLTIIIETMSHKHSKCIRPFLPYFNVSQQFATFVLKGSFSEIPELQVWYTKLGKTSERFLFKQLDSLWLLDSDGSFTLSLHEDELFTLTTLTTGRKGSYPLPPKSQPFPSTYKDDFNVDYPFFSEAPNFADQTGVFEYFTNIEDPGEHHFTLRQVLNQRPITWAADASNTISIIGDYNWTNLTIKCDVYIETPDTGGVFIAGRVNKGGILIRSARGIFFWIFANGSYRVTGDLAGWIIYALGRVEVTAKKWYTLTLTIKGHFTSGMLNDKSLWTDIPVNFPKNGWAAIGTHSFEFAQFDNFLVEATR
Turning to `Cc1ccc(-c2nc(SCc3ccc(Br)cc3)n3[nH]c(=O)cc3n2)cc1`, the “activation” value is inactive: 3.75%.
To `Cc1c(-c2cccc(NC(=O)C(C)(C)C)c2)nc2ncccn12` belongs inactive: -5.4%; to `Cc1nnc(SCC(=O)NCc2ccccc2F)c2nn(-c3ccc(Cl)cc3)c(C)c12`, inactive: -26.5%; to `Cc1ccc(Cn2ccc(NC(=O)c3cc(-c4ccc(Cl)c(Cl)c4)on3)n2)cc1`, inactive: -18.5%.
Regarding `COCCc1nn2c(=O)cc(COC(=O)c3ccc(C(C)(C)C)cc3)nc2s1`, the “activation” value is inactive: -19.7%.
As for `CCC1CN(C(=O)N2CCC(C(=O)NCc3cccs3)CC2)c2cc(C)ccc2O1` (stereo not drawn), the figure is inactive: -16.5%; as for `COc1ccccc1CNC(=O)c1cccc(Nc2nc3ccccc3n3nnnc23)c1`, inactive: -19.5%; as for `Cc1ccc2nc(N3CCN(c4cccc(C)c4C)CC3)c3nnnn3c2c1`, inactive: -8.95%.
To `CC(C)(C)C(=O)Nc1c(C(=O)N2CCN(c3ccc(F)cc3)CC2)oc2ccccc12` belongs inactive: -8.69%.
As for `COc1ccc(NC(=O)Cc2csc(C)n2)cc1`, the figure is inactive: -10.7%; as for `O=C(CC1(O)C(=O)N(CCc2ccccc2)c2ccc(Br)cc21)c1ccccc1O` (stereo not drawn), inactive: -12.7%.
For the compound `CCOc1ccc(-c2cc(C(=O)NCc3ccccc3)c3c(-c4ccc(CC)cc4)[nH]nc3n2)cc1`, the “activation” value is inactive: -7.39%.
As for `O=C(COc1ccc(F)cc1)Nc1ccc2nc(SCc3ccccc3)sc2c1`, the figure is inactive: -8.35%; as for `CCc1cccc(NC(=O)CSc2ncc3c(n2)-c2ccccc2N(Cc2ccccc2C)S3(=O)=O)c1`, inactive: -1.37%.
As for `Cc1ccccc1Nc1c2c(nc3nncn13)CCC2`, the figure is inactive: -7.71%; as for `Oc1ccc(CCNCCCCCCNCCc2ccccc2)cc1O`, inactive: -14.4%.
For the compound `CC(=O)c1ccc(NC(=O)NCCc2c[nH]c3ccccc23)cc1`, the “activation” value was inactive: -5.45%.
As for `CC1CCN(CCNC(=O)c2ccc(Cn3c(SCc4ccccc4)nc4cccnc43)cc2)CC1`, the figure is inactive: -16.2%.
As for `Cc1cccc(-c2nc3scc(CCNC(=O)c4ccccc4Cl)n3n2)c1`, the figure is inactive: -25.1%; as for `CCOC(=O)C1CCN(S(=O)(=O)c2cc(-c3cc(C)no3)ccc2C)CC1`, inactive: -15.8%.
On to `CCCCCn1c(=O)[nH]c2cc(C(=O)Nc3ccc(F)cc3)ccc2c1=O`, for which the “activation” value is inactive: -9.31%.
For the compound `CC(C)c1nn2c(=O)cc(COC(=O)c3ccc(NC(=O)CCc4ccccc4)cc3)nc2s1`, the “activation” value is inactive: -4.57%.
Turning to `Cc1cccc(NC(=O)CSc2nnc(CNC(=O)c3c(F)cccc3Cl)o2)c1C`, the “activation” value is inactive: -16.1%.
To `CCc1cccc(C)c1NC(=O)CSc1nnc(N)s1` belongs inactive: 1.2%; to `O=C(Cn1c(=O)nc(-c2ccccc2)c2ccccc21)NCCCc1ccccc1`, inactive: -11.5%.
To `COc1ccc(CCNC(=O)CS(=O)Cc2nc(-c3ccc(C)cc3)oc2C)c(OC)c1` (stereo not drawn) belongs inactive: -10%; to `COc1ccc(CCNC(=O)C(=O)NCC(c2ccco2)S(=O)(=O)c2ccccc2)cc1OC` (stereo not drawn), inactive: -18.8%; to `Nc1ccc(S(=O)(=O)Nc2cnc3ccccc3n2)cc1`, inactive: -12.1%.
Turning to `Cc1ccccc1N1CCN(S(=O)(=O)c2nnc(NC(=O)c3ccc(Cl)cc3)s2)CC1`, the “activation” value was inactive: -4.11%.
Turning to `CCOc1ccccc1NS(=O)(=O)c1cnc(N)nc1`, the “activation” value was inactive: -3.55%.
Consider `CCOc1ccc(NC(=O)c2ccc(F)c(S(=O)(=O)NCc3ccc4c(c3)OCO4)c2)cc1`, for which the “activation” value was inactive: -11.1%.
As to `CNC[C@H](O)[C@@H](O)[C@H](O)[C@H](O)CO`, the “activation” value is inactive: -13.7%.
To `COc1ccc(-n2c(SCc3ccccc3F)nc3c([nH]c4ccccc43)c2=O)cc1` belongs inactive: -11.4%.
Turning to `O=C(NC1CC(=O)N(c2ccc(Cl)cc2)C1)c1ccc(S(=O)(=O)N2CCCC2)cc1` (stereo not drawn), the “activation” value was inactive: -6.66%.
To `Cc1oc2ncn(CC(C)C)c(=O)c2c1C(=O)NCCCN(Cc1ccccc1)C(C)C` belongs inactive: -12.2%; to `CCOc1ccc(NC(=O)CSc2nnc(-c3ccc(C)cc3)c(-c3ccc(C)cc3)n2)cc1`, inactive: -10.1%; to `Cc1ccccc1CSc1nnc2[nH]c(=O)cc(C)n12`, inactive: -9.53%.
To `O=C(NCCCc1nc2ccccc2n1Cc1ccc(Cl)cc1)c1ccco1` belongs inactive: -2.76%; to `O=C(Cn1cc(S(=O)(=O)Cc2ccc(F)cc2)c2ccccc21)NCc1ccccc1Cl`, inactive: -11.3%; to `CCCC12CN3CC(C)(CN(C1)C3c1cn(C)c3ccccc13)C2=O` (stereo not drawn), inactive: -4.89%.
To `CCc1cccc(NCc2ccccc2-c2nnc(-c3ccccc3Cl)o2)c1` belongs inactive: -11.2%; to `CC(=O)c1ccc(NC(=O)C2CCC(CNS(=O)(=O)c3ccc4c(c3)CCCC(=O)N4)CC2)cc1` (stereo not drawn), inactive: -8.51%; to `CSc1nn(Cc2ccc(Br)cc2)c(N(C(C)=O)C(C)=O)c1S(=O)(=O)c1ccccc1`, inactive: -7.57%.
Consider `NCCCC(O)(P(=O)(O)O)P(=O)(O)O`, for which the “activation” value is inactive: -17.5%.
To `CCn1c(CN2CCOCC2)nc2cc(NC(=O)c3cc(OC)c(OC)c(OC)c3)ccc21` belongs inactive: -10.4%; to `CCCCSCCCNC(=O)C1CCC(CNS(=O)(=O)c2ccccc2)CC1` (stereo not drawn), inactive: 13.1%; to `CCc1ccccc1NC(=O)C1CCCN(c2nnc(-n3c(C)ccc3C)s2)C1` (stereo not drawn), inactive: -12.8%.
To `COc1ccccc1N1CCN(C(=O)Cc2c(C(=O)O)c(C)cn2C)CC1` belongs inactive: -6.26%.
As to `COc1ccc(-c2cc(C(=O)NCc3ccccc3)c3c(-c4ccccc4)[nH]nc3n2)cc1`, the “activation” value is inactive: 2.64%.
As for `CC1CCN(C(=O)Cn2ncc3c4ccccc4n(Cc4ccc(Cl)cc4)c3c2=O)CC1`, the figure is inactive: -13.8%; as for `O=C(Nc1ccc(F)cc1F)c1ccc2c(=O)n3c(nc2c1)CCCCC3`, inactive: -1.05%.
To `CCOc1ccc(CCNC(=O)c2ccc3nc(CC)c(CC)nc3c2)cc1` belongs inactive: -21.5%.
As for `COc1cccc(-n2c(=O)c3sc4ccccc4c3n(CC(=O)Nc3cccc(Cl)c3)c2=O)c1`, the figure is inactive: 2.35%; as for `Fc1ccc(CNc2nc3ccc(Cl)cc3n3nnnc23)cc1`, inactive: 0.621%.
As for `Cc1c(C(=O)N(C)c2cccc(C(F)(F)F)c2)sc2nc3n(c(=O)c12)CCCCC3`, the “activation” value was inactive: -5.77%.
To `CCOc1ccc(OCC(=O)Nc2c(C(=O)Nc3ccc(C)cc3)oc3ccccc23)cc1` belongs inactive: -9.66%; to `C=Cc1ccc(Cn2c(=O)n(-c3cccc(C)c3)c(=O)c3c2c2cc(C)ccc2n3C)cc1`, inactive: 2.48%.
As for `CCSc1ncc(Cl)c(C(=O)N2CCN(c3ccc(OC)cc3)CC2)n1`, the figure is inactive: -10.5%; as for `O=C1C(CCS(=O)c2ccccc2)C(=O)N(c2ccccc2)N1c1ccccc1` (stereo not drawn), inactive: -15.3%.
As for `Cc1ccc(S(=O)(=O)c2c(C)nn(-c3ccccc3)c2OC(=O)c2ccccc2F)cc1`, the figure is inactive: -10.2%.
With `CCN(CC)c1ccc(NC(=O)C2COc3ccc(OC)cc3C2)c(C)c1` (stereo not drawn), the “activation” value is inactive: -14.3%.
As for `COC(=O)N[C@H](C(=O)N[C@@H](Cc1ccccc1)[C@@H](O)CN(Cc1ccc(-c2ccccn2)cc1)NC(=O)[C@@H](NC(=O)OC)C(C)(C)C)C(C)(C)C`, the figure is inactive: -7.18%; as for `O=C(Nc1ccc2c(c1)N(C1CCCC1)C(=O)c1ccccc1S2)c1ccc(F)cc1`, inactive: -10.8%.
As for `CCN(CC)CCCNC(=O)c1ccc2nc(CCc3ccccc3)oc2c1`, the figure is inactive: -15%; as for `O=S(=O)(c1cccc(Cl)c1)c1nnn2c1nc(NC1CCCCCC1)c1sccc12`, inactive: -13.4%.
As for `Cc1cc(C)c(/C=C/c2onc(C)c2S(=O)(=O)N2CCC(C(=O)N3CCN(c4ccc(Cl)cc4)CC3)CC2)c(C)c1`, the figure is inactive: -17.3%; as for `Cc1ccc(NC(=O)Cn2c(C)cc(C)c(C#N)c2=O)cc1F`, inactive: -14.9%; as for `Cc1ccc(C(=O)Nc2nc3n(n2)C(c2ccccc2)C=C(c2ccccc2)N3)cc1` (stereo not drawn), inactive: -9.79%.
For the compound `CN(CC(=O)Nc1ccc(F)cc1F)S(=O)(=O)c1ccc(C(=O)N2CCOCC2)s1`, the “activation” value was inactive: -22%.
To `CC1CCc2onc(C(=O)N3CCN(c4cccc(C(F)(F)F)c4)CC3)c2C1` (stereo not drawn) belongs inactive: -28.9%; to `COc1ccc(-c2nc3ccccc3s2)cc1NC(=O)c1cc2ccccc2o1`, inactive: -11.2%.
As for `NC(=O)OCC(COC(N)=O)c1ccccc1`, the figure is inactive: -18.4%.
To `Cc1ccc(NC(=O)CCNS(=O)(=O)c2cccc3nsnc23)cc1` belongs inactive: -4.64%; to `O=C(Cc1csc2ccccc12)NCc1ccccc1F`, inactive: 1.6%; to `CCOc1ccc(-c2nc(SCC(=O)Nc3ccc4c(c3)OCCO4)c(-c3ccc(F)cc3)[nH]2)cc1`, inactive: -17.3%.
Consider `CN1CCN(C(c2cccc(Br)c2)c2sc3nc(-c4ccco4)nn3c2O)CC1` (stereo not drawn), for which the “activation” value is inactive: -1.72%.
To `CCC(=O)N1CCc2cc(Br)cc(S(=O)(=O)CCC(=O)NCCc3ccccc3Cl)c21` belongs inactive: -14.7%; to `CCOc1ccc(-c2nonc2NC(=O)c2ccc(C)cc2)cc1OCC`, inactive: -21.8%.
To `O=C(Cn1nc(Cc2cccnc2)c2ccccc2c1=O)Nc1cccc(C(F)(F)F)c1` belongs inactive: -33.1%; to `CCc1cccc(-n2nnc(-c3nc(-c4cccs4)no3)c2N)c1`, inactive: -24.5%; to `CCC(=O)OCCCNc1nc(-c2ccc(Cl)cc2)nc2ccccc12`, inactive: 2.34%.
As for `CC(=O)N1CCCc2cc(S(=O)(=O)N3CCN(c4ccc(F)cc4)CC3)ccc21`, the figure is inactive: -12.3%.
Regarding `COc1ccc(NC(=O)c2noc3c2CSc2ccccc2-3)cc1Cl`, the “activation” value was inactive: 1.82%.
As for `COc1cccc(OC)c1C(=O)Nc1cccc(-c2nc3cc(C)cc(C)c3o2)c1`, the figure is inactive: -17.3%; as for `Clc1ccc2nc(-c3ccc(Br)o3)c(Nc3ccc4c(c3)OCCO4)n2c1`, inactive: 8.03%.
As for `O=C(CSc1nc2ccsc2c(=O)n1Cc1ccccc1F)NCc1ccccc1`, the figure is inactive: 0.317%; as for `COc1ccc(S(=O)(=O)N(C)Cc2nc(-c3cccc(C)c3)no2)cc1`, inactive: -13.6%; as for `CCc1ccc(NC(=O)N(Cc2ccc(C)cc2)Cc2cccn2-c2nnc(N3CCCC3=O)s2)cc1`, inactive: -3.11%.
As for `CCc1ccc(NC(=O)CN2C(=O)C(c3ccccc3)=NC23CCCCCC3)cc1`, the figure is inactive: -25.8%.
In the case of `CCCc1cc(=O)n2[nH]c(-c3ccc(C)cc3)nc2n1`, the “activation” value is inactive: -16.8%.
With `Cc1ccc(NC(=O)N2CCC(CN3CCC(C)CC3)CC2)cc1F`, the “activation” value is inactive: -7.66%.
As for `COc1ccc(-c2cc(C(F)(F)F)nc(SCC(=O)NCCc3ccc(OC)c(OC)c3)n2)cc1`, the figure is inactive: -15%.
In the case of `COc1cccc(CNC(=O)C(NS(=O)(=O)c2ccc3nc(C)sc3c2)C(C)C)c1` (stereo not drawn), the “activation” value is inactive: 7%.
As for `Cc1ccc(NC(=O)C2CCCN(c3nnc(-n4c(C)ccc4C)s3)C2)cc1Cl` (stereo not drawn), the figure is inactive: -6.27%; as for `Cc1ccc2nc(CSc3nnc(NC(=O)COc4ccccc4)s3)cc(=O)n2c1`, inactive: -10.1%; as for `CCOC(=O)c1c(C)c(-c2ccccc2)n(CC(=O)NCCc2ccc(C)cc2)c1C`, inactive: -10.3%.
As for `CCCCc1ccc(NC(=O)COc2cccc3c(=O)n(C)ccc23)cc1`, the figure is inactive: -14.5%.
As for `CCOC(=O)c1ccc(NC(=O)c2cc(=O)c3cc(CC)ccc3o2)cc1`, the figure is inactive: -6.84%.
